Measured values taken from PMC12040169 (PLOS Biology, 2025).
The other results are listed elsewhere or left out.

The molecules below were run on T1, C. trachomatis L2/434/Bu expressing GFP (CTL2-GFP). Settings: total inclusion area; 28.5 h, 10 µM; inhibitor.
T1 construct: L2/434/Bu GFP intracellular growth in HeLa cells
Parameters: species or system HeLa; C. trachomatis total inclusion area by high-content imaging, normalised to DMSO
Method in brief: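 After bulk GFP and resorufin fluorescence reads, cells were fixed, stained with Hoechst and imaged by high-content microscopy. Inclusion area and number (GFP) stood in for chlamydial growth, nuclei count (Hoechst) for host cell viability. MICs were derived as for the bulk readout.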

| SMILES | % of control remaining |
| --- | --- |
| COc1ccc(C(=O)NCCCc2nc3ccccc3[nH]2)cc1OC [CBK270018] | 97.7327 |
| Cc1cc(C[C@@H]2COC[C@H]2NCc2c(F)cccc2Cl)on1 [CBK282994] | 89.9827 |
| O=C(COc1ccc2oc3c(c2c1)CCCC3)Nc1cccc2cccnc12 [CBK266137] | 125.945 |
| O=C(Oc1ccccc1)c1ccnc(Cl)c1 [CBK090322] | 61.1094 |
| COc1ncccc1C(=O)Nc1c(C)noc1C [CBK200307] | 85.6767 |
| O=S(=O)(Nc1cc(NCCCN2CCOCC2)c2occc2c1)c1ccccc1C(F)(F)F [CBK067838C] | 42.1859 |
| O=C(CSc1cnn[nH]1)Nc1ccc(F)cc1 [CBK270024] | 77.6345 |
| COc1ccc(-c2cc(C(=O)NCCc3cccc(C(F)(F)F)c3)cnc2-c2ccccc2)cn1 [CBK036662] | 108.296 |
| Cc1nn(CC(=O)NC2CC2)c(=O)c2cc3sccc3n12 [CBK284047] | 67.7387 |
| CCCC1=NNC(=O)C1Cc1c(F)cccc1Cl (stereo not drawn) [CBK067753] | 95.4938 |
| CC(=O)NCCN1CCC(O)(c2ccc(C)cc2)CC1 [CBK283321] | 110.186 |
| CC(C)OC(=O)CCNC(=O)c1cccc(S(=O)(=O)N2CCCC2)c1 [CBK306090] | 51.214 |
| Cc1ccc(O)c(NC(=O)c2ccccc2-c2ccccc2C(=O)O)c1 [CBK266763] | 107.677 |
| COc1ccc(CN(C(=O)c2cccc(-n3cnnn3)c2)C2CC2)cc1 [CBK256997] | 56.8197 |
| O=[N+]([O-])c1ccc(N2CCN(Cc3ccccc3)CC2)cc1NCc1ccccc1 [CBK045841] | 88.3182 |
| O=C(O)CSc1nc2ccccc2n2cnnc12 [CBK269831] | 86.6622 |
| Cc1ccccc1Cn1c(CN2CCCCC2C)nc2c1c(=O)n(C)c(=O)n2C (stereo not drawn) [CBK269199] | 97.769 |
| Cc1ccccc1NC(=O)c1c(NC(=O)Cc2ccccc2)sc2c1CCCC2 [CBK262572] | 90.6499 |
| CC(=O)/N=c1\[nH]c(NC(C)=O)nn1-c1ccccc1 [CBK287938] | 100.633 |
| COc1cc(C=Cc2cc(C(=O)O)c3ccccc3n2)cc(Cl)c1OC(C)C [CBK296941] | 91.2958 |
| Cn1cnc(C(=O)N2CCC[C@@H]3NC(=O)c4ccccc4OCCCCC[C@@H]32)c1 [CBK292122] | 79.0448 |

| SMILES | % of control remaining |
| --- | --- |
| Cc1cc(CN2CCC(N(C)Cc3nnc(C)n3C)C2)no1 (stereo not drawn) [CBK305088] | 40.969 |
| CN(C)CCN(Cc1cccnc1)C(=O)C1(c2ccccc2F)CC1 [CBK282771] | 90.8931 |
| OCCN1CCN(C(c2ccccc2)c2sc3ncnn3c2O)CC1 (stereo not drawn) [CBK287611] | 85.1281 |
| FC(F)(F)c1ccc(Sc2ccncc2)nc1 [CBK115217] | 90.3023 |
| Cc1cc(I)ccc1NC(=O)CCN1C(=O)c2cccc([N+](=O)[O-])c2C1=O [CBK263128] | 106.805 |
| Cc1nc(CN2CCC(Oc3nccnc3OCc3ccc(Cl)c(Cl)c3)CC2)cs1 [CBK153787] | 89.4297 |
| c1ccc(CNc2nc(-c3ccsc3)cn3ccnc23)cc1 [CBK037868] | 108.234 |
| O=c1ccc2c(-c3ccsc3)ccnc2[nH]1 [CBK073724] | 97.5299 |
| Nc1c(C(F)(F)F)cc(Cl)nc1Cl [CBK005620] | 91.6244 |
| CCOC(=O)Nc1ccsc1C(=O)OC [CBK027880] | 147.561 |
| O=C(O)CCC1NC(=O)N(C2CCCCC2)C1=O (stereo not drawn) [CBK287046] | 101.817 |
| Cc1ccc(C(=O)n2c(=S)nc3ccccn32)cc1 [CBK025729] | 79.6582 |
| COCC(=O)N1C2CCC(C2)[C@@H]1COc1ccc(F)cc1 (stereo partly drawn) [CBK284603] | 83.024 |
| Cc1cc(C)n(CCC(=O)N2CCCC2c2nc3ccccc3[nH]2)n1 (stereo not drawn) [CBK283664] | 95.0484 |
| CCOC(=O)c1ccccc1NC(=O)n1ccc2c(N3CCNCC3)cccc21 [CBK003731C] | 3.456 |
| Cc1cccc(=O)n1CCCn1cc(C2CCCNC2)nn1 (stereo not drawn) [CBK306946] | 37.2985 |
| O=C(Cn1c(-c2cccs2)cc2cccnc21)N1CCOCC1 [CBK282452] | 115.804 |
| COC(=O)c1c(-c2ccc(F)cc2)csc1NC(=O)CSc1ncnc2sc3c(c12)CCC3 [CBK265976] | 98.9472 |
| O=C(c1ccncc1)C12CN3CN(CN(C3)C1)C2 [CBK261451] | 112.028 |
| COc1ccc(CCC2CCN(C)CC2)c(O)c1 [CBK283668] | 90.3952 |
| CC(C)N(CCOc1nccnc1-c1ccsc1)C(C)C [CBK106777] | 81.3635 |

| SMILES | % of control remaining |
| --- | --- |
| CCN1CC(C(=O)N2CCN(C)CC2c2ccccc2)CC1=O (stereo not drawn) [CBK282026] | 102.135 |
| CCn1cc(C2CN(S(=O)(=O)c3cccc(C(C)C)c3)CCO2)cn1 (stereo not drawn) [CBK304227] | 54.9879 |
| O=C(CCCc1nc(-c2ccc(Cl)cc2)no1)NCc1cccnc1 [CBK269415] | 54.7651 |
| CN(C)CC(C)(C)CN1C2CCC1CC(O)(c1ccccc1F)C2 (stereo not drawn) [CBK282648] | 141.541 |
| OCCN(CCO)CC1CC2C=CC1C2 (stereo not drawn) [CBK261874] | 105.011 |
| Cn1nc(-c2ccc(S(=O)(=O)n3cc(C#N)c(N)n3)s2)cc1C(F)(F)F [CBK067237] | 87.4635 |
| O=C(NCCN1CCOCC1)C1CCN(c2nc3c(-c4ccccc4F)csc3c(=O)[nH]2)CC1 [CBK215442] | 127.736 |
| CCOC(=O)c1c(C)nc2n(CCN3CCCCC3)c3ccccc3n12 [CBK278238C] | 88.2932 |
| Cc1nccn1CCNC(=O)CCc1cn(C)c2ccccc12 [CBK281962] | 112.117 |
| COc1nc(-c2cccnc2)cn2ccnc12 [CBK093490] | 95.5 |
| CC(=O)NCCNc1ccc(C(=O)O)cc1[N+](=O)[O-] [CBK264184] | 107.721 |
| Cc1ccc(C(=O)O)cc1NC(=O)C(=O)NCC(c1ccccc1)N1CCN(C)CC1 (stereo not drawn) [CBK286864] | 72.498 |
| OC1(c2cccnc2F)CCN(Cc2ccc(Cl)cc2)CC1 [CBK284368] | 81.6774 |
| O=C(CC(C(=O)O)N1CCOCC1)Nc1ccccc1 (stereo not drawn) [CBK267008] | 102.359 |
| CC(C)C(=O)Nc1cc2cccnc2c(-c2ccc3c(c2)CCO3)n1 [CBK081260] | 94.4814 |
| O=C(Nc1ccc(N2CCNCC2)nc1)c1cccs1 [CBK029430T] | 108.379 |
| O=C(Cc1c[nH]c2ccccc12)Nc1cncc(OC2CCNCC2)n1 [CBK028441T] | 96.9495 |
| O=S(=O)(Nc1cccc(C(F)(F)F)c1)c1cc2c(N3CCNCC3)nccc2s1 [CBK039085C] | 80.8487 |
| COc1cccc(CN2CCC3(CCCNC3=O)CC2)c1 [CBK284824] | 88.8171 |
| CN(c1cc(F)ccc1[N+](=O)[O-])S(=O)(=O)c1ccccc1 [CBK001369] | 85.6944 |
| COc1cccc(C(=O)N2CCCC(c3cc4ncccc4[nH]3)C2)c1 (stereo not drawn) [CBK283416] | 66.403 |

| SMILES | % of control remaining |
| --- | --- |
| O=S(=O)(Oc1ccc2ccccc2c1)c1ccc2c(c1)Cc1cc(S(=O)(=O)Oc3ccc4ccccc4c3)ccc1-2 [CBK262385] | 86.6488 |
| Cc1nnnn1CC(=O)Nc1nn(C)c2cccc(N3CCOCC3)c12 [CBK307335] | 52.4344 |
| Cc1ccc(C(C)C)c(OCC(=O)NS(=O)(=O)c2ccc(Br)cc2)c1 [CBK268719] | 117.684 |
| Cc1ccc(S(=O)(=O)c2ccc(C)c(S(=O)(=O)N3CCCC3)c2)cc1S(=O)(=O)N1CCCC1 [CBK261772] | 105.765 |
| O=C(N[C@@H](Cc1ccc(OCc2ccc(Cl)cc2Cl)cc1)C(=O)O)C1CCCC1 [CBK017610] | 84.8893 |
| Oc1ccc2ccccc2c1/C=N/Nc1nnc(-c2ccccc2)c(-c2ccccc2)n1 [CBK262005] | 105.254 |
| Cn1ccnc1CNC(=O)c1cccc(OCC(=O)N2CCCCC2)c1 [CBK306635] | 96.0874 |
| CCCN1CCC(NC(=O)c2cccc(S(N)(=O)=O)c2)CC1 [CBK305956] | 49.7143 |
| COc1ccc(CN2CCN(Cc3ccc4c(c3)OCO4)CC2)c(OC)c1OC [CBK033874] | 85.8133 |
| O=C(O)c1ccc(-n2nnnc2SCc2ccccc2)cc1 [CBK287161] | 91.8151 |
| O=C1c2ccc(Oc3ccc4c(c3)C(=O)N(c3ccccn3)C4=O)cc2C(=O)N1c1ccccn1 [CBK261202] | 105.003 |
| CN(C(=O)Cc1ccsc1)c1nc2c(s1)CCc1c-2cnn1C [CBK281929] | 37.1858 |
| Cc1ncsc1C(=O)NCc1ccc(S(=O)(=O)N2CCCCC2)cc1 [CBK305556] | 97.1546 |
| c1ccc2c(c1)nc(-c1cscn1)n2Cc1ccc(-c2nnn[nH]2)cc1 [CBK266979] | 119.262 |
| O=C(Cn1c(C(F)(F)F)nc2ccccc21)NCCN1CCCC1 [CBK267150] | 122.501 |
| Cc1ccc(S(=O)(=O)N(C)CC(=O)NCc2nc(-c3ccccc3)no2)cc1 [CBK268524] | 133.947 |
| COc1ccc(C(=O)COC(=O)c2cc(-c3ccc(Cl)cc3)nc3ccc(C)cc23)cc1[N+](=O)[O-] [CBK264072] | 103.028 |
| CCN1CCC(NC(=O)CSc2nc3ccccc3n2CC(C)C)CC1 [CBK304995] | 66.9217 |
